Assay results as given in patent EP1566447A1, “Glimepiride- and insulin-induced glycosylphosphatidylinositol-specific phospholipase C regulation” (priority 2004, dated 2005).

Tested on: Isolated rat adipocytes
Experiment: glimepiride-induced redistribution of signaling proteins within DIGs
Settings: compared to basal adipocytes; Fig. 5

SMILES: CCC1=C(C)CN(C(=O)NCCc2ccc(S(=O)(=O)NC(=O)N[C@H]3CC[C@H](C)CC3)cc2)C1=O [Glimepiride, glimepiride]
- losses of pp59^Lyn, Gce1 and 5'-Nuc at hcDIGs: 70 to 90%
